Results as given in article PMC12820563, “FoxP3 forms a head-to-head dimer in vivo and stabilizes its multimerization on adjacent microsatellites”.
Some of the results follow.

These sequences were tested against T1, MBP-FoxP1dN (Mus musculus, UniProt P58462 326-579) (assay: PD-seq (MBP pull-down with sequencing); 20 mM Tris-HCl pH 7.5, 100 mM NaCl, 1.5 mM MgCl2, 0.4 uM protein, 0.1 uM dsDNA library, 30 min, room temperature, amylose pull-down; high values mean tight binding). Settings: protein: recombinant; tags: His6-MBP; chain copies: 2; dsDNA, one strand shown.
T1 sequence: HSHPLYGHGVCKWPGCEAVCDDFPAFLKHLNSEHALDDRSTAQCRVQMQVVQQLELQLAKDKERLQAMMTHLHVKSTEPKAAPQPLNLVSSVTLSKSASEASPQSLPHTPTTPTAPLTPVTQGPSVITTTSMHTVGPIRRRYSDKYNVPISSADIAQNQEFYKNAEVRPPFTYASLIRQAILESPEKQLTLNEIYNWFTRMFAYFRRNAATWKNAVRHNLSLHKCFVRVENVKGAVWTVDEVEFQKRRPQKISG
Outline: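 Mouse FoxP3 or FoxP1 fragment lacking the N-terminus, His6-MBP-tagged and expressed in E. coli, was incubated at 0.4 µM with 0.1 µM Klenow-filled degenerate double-stranded DNA library for 30 min at room temperature in Tris pH 7.5 buffer with NaCl and MgCl2. Complexes captured on amylose resin were washed three times and their DNA sequenced on Illumina. Binding is reads-per-million enrichment of pull-down over input, replicates pooled.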

Sequence	binding signal
GATGATTGTTCTCCCAGCTGATGAATTCGAGTCCTCGAGTAAACAAATTTTCCTAATCTTTCTGTTCAAGCGCCATCTAC	0.798 RPM ratio (pull-down/input)
GATGATTGTTCTCCCAGCTGATGAATTTCTTTATTCGAGTAAACAAATTTTCCTAATCTTTCTGTTCAAGCGCCATCTAC	0.979 RPM ratio (pull-down/input)
GATGATTGTTCTCCCAGCTGATGAATTCTCTCACTCGAGTAAACAAATTTTCCTAATCTTTCTGTTCAAGCGCCATCTAC	0.851 RPM ratio (pull-down/input)
GATGATTGTTCTCCCAGCTGATGAATTATATGCATCGAGTAAACAAATTTTCCTAATCTTTCTGTTCAAGCGCCATCTAC	1.45 RPM ratio (pull-down/input)
GATGATTGTTCTCCCAGCTGATGAATTAGTTAGTTCGAGTAAACAAATTTTCCTAATCTTTCTGTTCAAGCGCCATCTAC	0.968 RPM ratio (pull-down/input)
GATGATTGTTCTCCCAGCTGATGAATTCATGGAGTCGAGTAAACAAATTTTCCTAATCTTTCTGTTCAAGCGCCATCTAC	0.818 RPM ratio (pull-down/input)
GATGATTGTTCTCCCAGCTGATGAATTGATGGTTTCGAGTAAACAAATTTTCCTAATCTTTCTGTTCAAGCGCCATCTAC	1.01 RPM ratio (pull-down/input)
GATGATTGTTCTCCCAGCTGATGAATTCTGGTTTTCGAGTAAACAAATTTTCCTAATCTTTCTGTTCAAGCGCCATCTAC	0.965 RPM ratio (pull-down/input)
GATGATTGTTCTCCCAGCTGATGAATTCGCGAAATCGAGTAAACAAATTTTCCTAATCTTTCTGTTCAAGCGCCATCTAC	1.01 RPM ratio (pull-down/input)
GATGATTGTTCTCCCAGCTGATGAATTAACTTCGTCGAGTAAACAAATTTTCCTAATCTTTCTGTTCAAGCGCCATCTAC	0.86 RPM ratio (pull-down/input)
GATGATTGTTCTCCCAGCTGATGAATTTGTATCCTCGAGTAAACAAATTTTCCTAATCTTTCTGTTCAAGCGCCATCTAC	1.34 RPM ratio (pull-down/input)
GATGATTGTTCTCCCAGCTGATGAATTTGCCACATCGAGTAAACAAATTTTCCTAATCTTTCTGTTCAAGCGCCATCTAC	1.12 RPM ratio (pull-down/input)
GATGATTGTTCTCCCAGCTGATGAATTCTCAATTTCGAGTAAACAAATTTTCCTAATCTTTCTGTTCAAGCGCCATCTAC	0.926 RPM ratio (pull-down/input)
GATGATTGTTCTCCCAGCTGATGAATTGTTCATGTCGAGTAAACAAATTTTCCTAATCTTTCTGTTCAAGCGCCATCTAC	1.07 RPM ratio (pull-down/input)
GATGATTGTTCTCCCAGCTGATGAATTCATCCGTTCGAGTAAACAAATTTTCCTAATCTTTCTGTTCAAGCGCCATCTAC	0.869 RPM ratio (pull-down/input)
GATGATTGTTCTCCCAGCTGATGAATTATTGCCCTCGAGTAAACAAATTTTCCTAATCTTTCTGTTCAAGCGCCATCTAC	1.08 RPM ratio (pull-down/input)
GATGATTGTTCTCCCAGCTGATGAATTCTCCAACTCGAGTAAACAAATTTTCCTAATCTTTCTGTTCAAGCGCCATCTAC	0.831 RPM ratio (pull-down/input)
GATGATTGTTCTCCCAGCTGATGAATTAATCGTGTCGAGTAAACAAATTTTCCTAATCTTTCTGTTCAAGCGCCATCTAC	0.998 RPM ratio (pull-down/input)
GATGATTGTTCTCCCAGCTGATGAATTCTTAGAATCGAGTAAACAAATTTTCCTAATCTTTCTGTTCAAGCGCCATCTAC	0.879 RPM ratio (pull-down/input)
GATGATTGTTCTCCCAGCTGATGAATTACTCCTCTCGAGTAAACAAATTTTCCTAATCTTTCTGTTCAAGCGCCATCTAC	1.05 RPM ratio (pull-down/input)
GATGATTGTTCTCCCAGCTGATGAATTCCAAACGTCGAGTAAACAAATTTTCCTAATCTTTCTGTTCAAGCGCCATCTAC	0.797 RPM ratio (pull-down/input)

Sequence	binding signal
GATGATTGTTCTCCCAGCTGATGAATTACATCCGTCGAGTAAACAAATTTTCCTAATCTTTCTGTTCAAGCGCCATCTAC	1.11 RPM ratio (pull-down/input)
GATGATTGTTCTCCCAGCTGATGAATTTTGATCGTCGAGTAAACAAATTTTCCTAATCTTTCTGTTCAAGCGCCATCTAC	0.904 RPM ratio (pull-down/input)
GATGATTGTTCTCCCAGCTGATGAATTAACTAGTTCGAGTAAACAAATTTTCCTAATCTTTCTGTTCAAGCGCCATCTAC	0.874 RPM ratio (pull-down/input)
GATGATTGTTCTCCCAGCTGATGAATTAATCCTGTCGAGTAAACAAATTTTCCTAATCTTTCTGTTCAAGCGCCATCTAC	0.881 RPM ratio (pull-down/input)
GATGATTGTTCTCCCAGCTGATGAATTATGGAATTCGAGTAAACAAATTTTCCTAATCTTTCTGTTCAAGCGCCATCTAC	0.941 RPM ratio (pull-down/input)
GATGATTGTTCTCCCAGCTGATGAATTTGTAAAATCGAGTAAACAAATTTTCCTAATCTTTCTGTTCAAGCGCCATCTAC	1.24 RPM ratio (pull-down/input)
GATGATTGTTCTCCCAGCTGATGAATTGCGCGTCTCGAGTAAACAAATTTTCCTAATCTTTCTGTTCAAGCGCCATCTAC	1.06 RPM ratio (pull-down/input)
GATGATTGTTCTCCCAGCTGATGAATTGTGAGCTTCGAGTAAACAAATTTTCCTAATCTTTCTGTTCAAGCGCCATCTAC	1 RPM ratio (pull-down/input)
GATGATTGTTCTCCCAGCTGATGAATTGGATTCTTCGAGTAAACAAATTTTCCTAATCTTTCTGTTCAAGCGCCATCTAC	0.813 RPM ratio (pull-down/input)
GATGATTGTTCTCCCAGCTGATGAATTTATGTCGTCGAGTAAACAAATTTTCCTAATCTTTCTGTTCAAGCGCCATCTAC	1.14 RPM ratio (pull-down/input)
GATGATTGTTCTCCCAGCTGATGAATTCCAAAGCTCGAGTAAACAAATTTTCCTAATCTTTCTGTTCAAGCGCCATCTAC	0.716 RPM ratio (pull-down/input)
GATGATTGTTCTCCCAGCTGATGAATTTCTATTCTCGAGTAAACAAATTTTCCTAATCTTTCTGTTCAAGCGCCATCTAC	0.816 RPM ratio (pull-down/input)
GATGATTGTTCTCCCAGCTGATGAATTTGGATACTCGAGTAAACAAATTTTCCTAATCTTTCTGTTCAAGCGCCATCTAC	1.07 RPM ratio (pull-down/input)
GATGATTGTTCTCCCAGCTGATGAATTCCCCCAATCGAGTAAACAAATTTTCCTAATCTTTCTGTTCAAGCGCCATCTAC	0.94 RPM ratio (pull-down/input)
GATGATTGTTCTCCCAGCTGATGAATTTCAAAACTCGAGTAAACAAATTTTCCTAATCTTTCTGTTCAAGCGCCATCTAC	0.849 RPM ratio (pull-down/input)
GATGATTGTTCTCCCAGCTGATGAATTGCTAGCTTCGAGTAAACAAATTTTCCTAATCTTTCTGTTCAAGCGCCATCTAC	0.984 RPM ratio (pull-down/input)
GATGATTGTTCTCCCAGCTGATGAATTCCTCGCGTCGAGTAAACAAATTTTCCTAATCTTTCTGTTCAAGCGCCATCTAC	0.864 RPM ratio (pull-down/input)
GATGATTGTTCTCCCAGCTGATGAATTCTCGAGATCGAGTAAACAAATTTTCCTAATCTTTCTGTTCAAGCGCCATCTAC	0.774 RPM ratio (pull-down/input)
GATGATTGTTCTCCCAGCTGATGAATTCTCACCGTCGAGTAAACAAATTTTCCTAATCTTTCTGTTCAAGCGCCATCTAC	0.825 RPM ratio (pull-down/input)
GATGATTGTTCTCCCAGCTGATGAATTTATAGCATCGAGTAAACAAATTTTCCTAATCTTTCTGTTCAAGCGCCATCTAC	1.29 RPM ratio (pull-down/input)
GATGATTGTTCTCCCAGCTGATGAATTCAGGTCGTCGAGTAAACAAATTTTCCTAATCTTTCTGTTCAAGCGCCATCTAC	0.793 RPM ratio (pull-down/input)

Sequence	binding signal
GATGATTGTTCTCCCAGCTGATGAATTTCCGGGCTCGAGTAAACAAATTTTCCTAATCTTTCTGTTCAAGCGCCATCTAC	0.767 RPM ratio (pull-down/input)
GATGATTGTTCTCCCAGCTGATGAATTATAGACGTCGAGTAAACAAATTTTCCTAATCTTTCTGTTCAAGCGCCATCTAC	0.937 RPM ratio (pull-down/input)
GATGATTGTTCTCCCAGCTGATGAATTGCGTTGGTCGAGTAAACAAATTTTCCTAATCTTTCTGTTCAAGCGCCATCTAC	1.01 RPM ratio (pull-down/input)
GATGATTGTTCTCCCAGCTGATGAATTGCTTCAATCGAGTAAACAAATTTTCCTAATCTTTCTGTTCAAGCGCCATCTAC	1.06 RPM ratio (pull-down/input)
GATGATTGTTCTCCCAGCTGATGAATTAATACAATCGAGTAAACAAATTTTCCTAATCTTTCTGTTCAAGCGCCATCTAC	1.64 RPM ratio (pull-down/input)
GATGATTGTTCTCCCAGCTGATGAATTTTAGTCCTCGAGTAAACAAATTTTCCTAATCTTTCTGTTCAAGCGCCATCTAC	0.782 RPM ratio (pull-down/input)
GATGATTGTTCTCCCAGCTGATGAATTGCGAAATTCGAGTAAACAAATTTTCCTAATCTTTCTGTTCAAGCGCCATCTAC	1.16 RPM ratio (pull-down/input)
GATGATTGTTCTCCCAGCTGATGAATTTACCCCTTCGAGTAAACAAATTTTCCTAATCTTTCTGTTCAAGCGCCATCTAC	1.06 RPM ratio (pull-down/input)
GATGATTGTTCTCCCAGCTGATGAATTACTTACTTCGAGTAAACAAATTTTCCTAATCTTTCTGTTCAAGCGCCATCTAC	1.12 RPM ratio (pull-down/input)
GATGATTGTTCTCCCAGCTGATGAATTCCGCCCGTCGAGTAAACAAATTTTCCTAATCTTTCTGTTCAAGCGCCATCTAC	0.758 RPM ratio (pull-down/input)
GATGATTGTTCTCCCAGCTGATGAATTGAGGTATTCGAGTAAACAAATTTTCCTAATCTTTCTGTTCAAGCGCCATCTAC	1.05 RPM ratio (pull-down/input)
GATGATTGTTCTCCCAGCTGATGAATTAAATAGCTCGAGTAAACAAATTTTCCTAATCTTTCTGTTCAAGCGCCATCTAC	0.967 RPM ratio (pull-down/input)
GATGATTGTTCTCCCAGCTGATGAATTTTATACTTCGAGTAAACAAATTTTCCTAATCTTTCTGTTCAAGCGCCATCTAC	0.942 RPM ratio (pull-down/input)
GATGATTGTTCTCCCAGCTGATGAATTACGGTGTTCGAGTAAACAAATTTTCCTAATCTTTCTGTTCAAGCGCCATCTAC	1.02 RPM ratio (pull-down/input)
GATGATTGTTCTCCCAGCTGATGAATTCTGCTTCTCGAGTAAACAAATTTTCCTAATCTTTCTGTTCAAGCGCCATCTAC	0.821 RPM ratio (pull-down/input)
GATGATTGTTCTCCCAGCTGATGAATTGAGCTAGTCGAGTAAACAAATTTTCCTAATCTTTCTGTTCAAGCGCCATCTAC	0.79 RPM ratio (pull-down/input)
GATGATTGTTCTCCCAGCTGATGAATTGCGGTAATCGAGTAAACAAATTTTCCTAATCTTTCTGTTCAAGCGCCATCTAC	1.45 RPM ratio (pull-down/input)
GATGATTGTTCTCCCAGCTGATGAATTCGCAAAGTCGAGTAAACAAATTTTCCTAATCTTTCTGTTCAAGCGCCATCTAC	0.838 RPM ratio (pull-down/input)
GATGATTGTTCTCCCAGCTGATGAATTCCCACCATCGAGTAAACAAATTTTCCTAATCTTTCTGTTCAAGCGCCATCTAC	0.867 RPM ratio (pull-down/input)
GATGATTGTTCTCCCAGCTGATGAATTACGGTAATCGAGTAAACAAATTTTCCTAATCTTTCTGTTCAAGCGCCATCTAC	1.32 RPM ratio (pull-down/input)
GATGATTGTTCTCCCAGCTGATGAATTCCGTTAGTCGAGTAAACAAATTTTCCTAATCTTTCTGTTCAAGCGCCATCTAC	0.826 RPM ratio (pull-down/input)
